Laboratory results as given in the supplement of paper PMC10126150.
Values marked as one replicate rest on one cluster of the flow cell; about a third of the high ones do not repeat.

Tested on: ATP
Test: switch fluorescence ratio, 500 uM ATP over buffer (Cy3 cluster intensity, sum of 5 cycles each) (fold (ratio)); higher = stronger signal-on switching upon ATP binding; sequences stand for … in TCGTCGGCAGCGTCAGATGTGTATAAGAGACAGTTTTTTTTTTTTTTTTTTTTTTTTT…TC
Conditions: aptamer strand: ATP DNA aptamer (quencher-CACCTGGGGGAGTATTGCGGAGGAAGG + anchor), 100 nM annealed; ATP concentration: 500 uM; one replicate
Outline: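 The fluorescence ratio divides summed target-cycle Cy3 intensity by summed buffer-cycle Cy3 intensity for each cluster and is averaged per switch-domain sequence. Cy3-labelled switching-strand clusters on a modified Illumina MiSeq flow-cell were annealed to 100 nM quencher-labelled ATP aptamer, then imaged in selection buffer and again after 15 min with 500 uM ATP at 22 °C. Five such cycles were run, with NaOH stripping and re-annealing between them, and clusters outside 100-1000 RFU were excluded.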
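Further: ATP exposure 15 min at 22 °C before imaging.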

| Sequence | switch fluorescence ratio |
| --- | --- |
| AAATGCCAGC | 0.988 |
| GTATTTAATT | 1 |
| GGTTGATGGC | 0.99 |
| AACACTGAC | 1.18 |
| ACAGTGGGTC | 1.01 |
| CAGTACTAAG | 1.04 |
| TGGTTACACT | 0.971 |
| GTTTTGTC | 1.04 |
| TTGCAGGTCC | 1.05 |
| CAAAGACCGT | 0.992 |
| CTGAGTACTG | 1.12 |
| CGATTGACCC | 1.08 |
| TGTTCTAAAT | 1.02 |
| GACTGGAGAG | 0.986 |
| CCTCGGTATT | 2.19 |
| CAATGGTGTA | 1 |
| GTCGGAAATT | 1.03 |
| GCAACGTCGT | 1.01 |
| ATAAGAATGG | 0.942 |
| AGCTTGTGTT | 0.961 |
| CTTGGGTAAT | 1.01 |
| CTTATATTGC | 1.06 |
| CAGAACCTAG | 1.05 |

| Sequence | switch fluorescence ratio |
| --- | --- |
| TAGTGTCGGG | 0.97 |
| TCAGTTCACG | 1.01 |
| TACTAGTCTG | 1.07 |
| AGTGGTCTTT | 0.955 |
| CGTTGCAGGC | 0.949 |
| TTGTAATGGT | 0.965 |
| CTGGGACCGA | 1.03 |
| CGCAGGTGTA | 1.71 |
| CATAACTGGT | 0.98 |
| CGTAATCTCG | 1.12 |
| GAGAGACGTT | 1.02 |
| AAAAAGTCAG | 1.03 |
| ACGGAAGTGA | 1.03 |
| GGTGTGTTCC | 1.07 |
| TCATCATGAG | 1.03 |
| TTCTCGCGTA | 1.02 |
| CAATAACTCG | 1.08 |
| GATGGAGTCG | 0.994 |
| GAGTCTGGAC | 1.05 |
| AGCATTTCTC | 1.64 |
| AAATGATTC | 0.99 |
| AATCCAGTA | 0.949 |
| AATAAAAGCC | 1.05 |

| Sequence | switch fluorescence ratio |
| --- | --- |
| TACCAGTAT | 0.991 |
| GAGGCAGGGC | 1.21 |
| GCACTCTGCC | 1.05 |
| ATCAAAATGC | 1.59 |
| TTATGGTGTG | 0.994 |
| CTAGTAGAT | 1.05 |
| CGGAACCAAT | 1.14 |
| CGCCGGCATC | 1.61 |
| AGTTTATATG | 1.02 |
| AGTATCGCGA | 1.08 |
| TCCATTATAA | 0.999 |
| CTTATGCGGT | 0.994 |
| ATAAGGCGGT | 0.988 |
| CTTGCACTAG | 1.15 |
| AGCAGAAGTA | 1.21 |
| TTCGTTCAA | 1.65 |
| TTGGGATCGC | 0.997 |
| TTATTATGAG | 1.02 |
| CACGAACGTG | 1.04 |
| TCGCAGTGAT | 1.44 |
| TCAGGATACG | 1.03 |
| AGCTGCCCGT | 0.963 |
| GCACACCCGT | 1.14 |

| Sequence | switch fluorescence ratio |
| --- | --- |
| CTAATCGTTT | 1.02 |
| TATGGCGTGC | 0.973 |
| GCTGCATGT | 1.02 |
| CTGCAGTGGA | 1.03 |
| GCCGGGTGTG | 1.01 |
| TTGATAGGAG | 0.961 |
| AGGAGCGGGT | 1.06 |
| CTTCGATATT | 1.01 |
| AGGTCTAACG | 1.03 |
| TGTGGGTAGC | 1.02 |
| GACATAGGAA | 2.23 |
| AGTGAAACCT | 2.62 |
| GCAGACCGAG | 1.03 |
| GAGGAGTGTA | 0.961 |
| CATTAAAACT | 0.976 |
| TTCATTGCT | 0.963 |
| ACGTTTATAA | 1.06 |
| TCGGCGTGAC | 1.09 |
| TACATTCCTT | 1.05 |
| GGGTCTACAT | 1.02 |
| CACTCTATCA | 1.03 |
| CATCTAAATT | 1.04 |
| CGGGTTAGGC | 0.983 |

| Sequence | switch fluorescence ratio |
| --- | --- |
| GCTTGCCCAG | 1.03 |
| ATCTGGATCT | 0.982 |
| AGTCACGCTG | 0.975 |
| GCGAGCTAGT | 1.02 |
| TTTATTAGC | 1.04 |
| CCAAGATGAA | 0.979 |
| CTCATGGTGC | 1.52 |
| ACATACCACG | 1.37 |
| TTAACACTTT | 1.04 |
| CACACATTGA | 0.979 |
| GCGGTTAGAC | 1.09 |
| GAACCCATCT | 1.01 |
| CGGGGTGAC | 0.983 |
| TATTTGGAGC | 1.02 |
| GTGGGCAGGA | 0.977 |
| GTAGCCGGTT | 1.1 |
| AACGCGCTGT | 1.07 |
| TCATTTTAAG | 0.956 |
| ACTGACGAAC | 1.83 |
| ACGACAGACT | 1.26 |
| GTCATAAAAG | 1.01 |
| GGGGTGCGAC | 1.01 |
| GTGGAAACGC | 1.05 |

| Sequence | switch fluorescence ratio |
| --- | --- |
| ACCGTAGCTC | 2.9 |
| ATATCTCACA | 1.06 |
| AAGGTCCACT | 0.945 |
| AATTATCCGT | 1 |
| TTGAGTCTGT | 0.999 |
| GTTATTCCGC | 1.35 |
| CTAGGGGCT | 0.99 |
| TAATTGTTT | 1 |
| GGTAGATAGC | 0.969 |
| AATGGTATTA | 0.999 |
| GCGCTCACGA | 1.1 |
| CCAGGAAGGG | 1.03 |
| GAATTAGAGG | 0.982 |
| TAAAGTCGAT | 0.985 |
| CACGGCTAGG | 1.02 |
| CAGGGGCACT | 1.04 |
| TCCTTCACCG | 1.94 |
| GCTAACGTTC | 1.02 |
| TGCTTACCAT | 1.02 |
| CTTAGTAGTC | 0.973 |
| TTGAGATAAC | 0.976 |
| GACTTTGTTA | 0.976 |
| TTCCTAAAAC | 1 |

| Sequence | switch fluorescence ratio |
| --- | --- |
| TGGCACAGA | 1 |
| TCGGCAAATA | 1.24 |
| ATTGAACGAT | 1.02 |
| GGATGACCTC | 0.995 |
| TGCGTTATCC | 1.04 |
| CAGTATTGGT | 1.01 |
| GTTATATACA | 1.05 |
| ATCCCGAGTG | 1.21 |
| TTGCCTGTGG | 0.983 |
| TATCTCTGAG | 1.12 |
| CCAACAGTGG | 1.16 |
| CTTTCTGATC | 0.986 |
| GAGCTACTTC | 1.06 |
| ATAATTTACT | 1.08 |
| CTGCCTTGCT | 0.988 |
| GAGCATGTAC | 4.56 |
| GATGGTCGGG | 0.955 |
| TCGCTTTTTA | 1 |
| AAAACTGTAT | 1.07 |
